Reference: article PMC10726135
The other results are listed elsewhere or left out. At the low end of the ranking the order means little. Measured with an extract: partners may take part in the binding.

The sequences below were run against T1, HNF4alpha2 (COS-7 nuclear extract) (UniProt P41235) (assay: protein-binding microarray). Settings: COS-7 nuclear extract on double-stranded Agilent 4x180k PBM; binding buffer, salt, pH and temperature not given; high values mean tight binding; double strand, one strand shown; sequences stand for … in …GCCTAGGGAGATTAGAGTATCGGTCGA.
T1 sequence: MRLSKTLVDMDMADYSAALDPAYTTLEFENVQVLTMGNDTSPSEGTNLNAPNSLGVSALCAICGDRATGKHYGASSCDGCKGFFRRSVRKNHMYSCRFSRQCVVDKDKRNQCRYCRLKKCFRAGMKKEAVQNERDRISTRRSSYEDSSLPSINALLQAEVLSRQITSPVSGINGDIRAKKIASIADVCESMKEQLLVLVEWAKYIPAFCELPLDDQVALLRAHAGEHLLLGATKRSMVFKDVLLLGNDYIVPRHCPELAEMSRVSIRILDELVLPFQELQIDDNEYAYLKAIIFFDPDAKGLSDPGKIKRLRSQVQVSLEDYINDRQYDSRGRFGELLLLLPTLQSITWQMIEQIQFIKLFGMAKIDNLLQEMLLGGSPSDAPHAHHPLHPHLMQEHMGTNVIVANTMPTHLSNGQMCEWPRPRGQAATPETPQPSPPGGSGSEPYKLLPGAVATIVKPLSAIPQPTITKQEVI
CACTTGTAGGCCTGTGTGCATGGAGTGCAC showed a binding signal (log2 normalized intensity) of 1.42.
CGCAGCGAATGGTCGCGCCGGGCGCCGCTC showed a binding signal (log2 normalized intensity) of -1.06.
In the case of CTCCTCTCCAGCCCATCCTAAGCCCCAGGG, the binding signal (log2 normalized intensity) is reported as 1.15.
With CATCCTCATTGCCTCTGGGCTTTGATGGAC the binding signal (log2 normalized intensity) was 1.64.
AGCTTAGTTTGCCACGGTCAGCAATGTGGA was tested, and the binding signal (log2 normalized intensity) was 1.21.
GCAGAGGGACAACTGAGTTACGTAATGTGT gave a binding signal (log2 normalized intensity) of 1.36.
Work on ATCTGGTCTTACTGATGGGCAAAGTTTTCA yielded a binding signal (log2 normalized intensity) of 1.19.
In the case of ACTAAATTCTTGTCAATGACCCTAATGGGG, the binding signal (log2 normalized intensity) is reported as 2.16.
In the case of AAGTGGGGGGAAAGAATAACGTTACAGTGG, the binding signal (log2 normalized intensity) is reported as -0.842.
Work on CTGAGGGGGGCCTCTTTTAAGAAGCCAGTG yielded a binding signal (log2 normalized intensity) of -1.17.
AACCTCACAGAAATCCAAAGGTCAACAGCC showed a binding signal (log2 normalized intensity) of 3.85.
TAATCAGCTTAAGCATACAGATTACATCTC showed a binding signal (log2 normalized intensity) of -0.798.
ACAAGACCACAAGGTGGCGATAACTCCTTT gave a binding signal (log2 normalized intensity) of -1.06.
Sequence ACCTCATTGTGATGTGTGCGTTCATCTCAC has a binding signal (log2 normalized intensity) of 2.09.
Work on GTGGGAGGCCAAGAGATAAAAGAGAAGATA yielded a binding signal (log2 normalized intensity) of -1.08.
With AGCTCTAGAACGCTGACTCCGGGGAGCAGG the binding signal (log2 normalized intensity) was -1.15.
GTCCCTGCTTGATAAGACTGACAACCGGCT was tested, and the binding signal (log2 normalized intensity) was -1.21.
TCCTCTTATCTTCAGGTATCCTTAAACACT was tested, and the binding signal (log2 normalized intensity) was 0.481.
Work on TGGAACTGACATGCTGTCACTTCTGCTGCA yielded a binding signal (log2 normalized intensity) of -1.23.
TTCTCAATGTCTTTCCTGCAGAGGGACTGA was tested, and the binding signal (log2 normalized intensity) was 1.72.
With TTGTTTAGGTACAAAGTCCATTGGAAGCCA the binding signal (log2 normalized intensity) was 5.82.
For CCAACATTCCAGAGAAGCACATCCAGGCAG, the binding signal (log2 normalized intensity) was -1.15.
For GACAATAATGAATAAGCACGTTAGAGAAAA, the binding signal (log2 normalized intensity) was -1.06.
With GCCAAACTTGGGTTTATGGCTTATGCATGT the binding signal (log2 normalized intensity) was 1.
For TAATCAGAGCAGGAATTCTGATCTTTGACC, the binding signal (log2 normalized intensity) was 7.18.
TATGGCAGGGTCGGAATGTCTGGGCAAAGG was tested, and the binding signal (log2 normalized intensity) was 1.35.
Sequence CACCCACTTGGATAATTTCTTATAAGCCGA has a binding signal (log2 normalized intensity) of -1.04.
Work on TCCACAGAGCACAGGATCCAGAGGTCACCC yielded a binding signal (log2 normalized intensity) of 2.54.
In the case of GTTGGAAAAAAAAAAAAGTAGTAGGAGGAG, the binding signal (log2 normalized intensity) is reported as -1.11.
GCAATGCCTCGCCCTGCTTCGGCTCGCGCA was tested, and the binding signal (log2 normalized intensity) was -1.15.
For TGGGCAAGATGGCTCTCCCGGGGCGGGGGT, the binding signal (log2 normalized intensity) was -1.06.
For CTCCAGGTACAAGGATAAATACTTCTCCTC, the binding signal (log2 normalized intensity) was -1.15.
Sequence CCCGGTGCGCTGGCCTTGCTTTTCACAGTC has a binding signal (log2 normalized intensity) of -1.14.
GTAAAGTCTGGCATACAGGGTCCAAAGGTG was tested, and the binding signal (log2 normalized intensity) was 5.94.
With TTGCATGAGAATCTGACCTTTGGTTAACTT the binding signal (log2 normalized intensity) was 4.89.
Sequence CTGGCAGCACCTGAAGAATTTGGACTTTGC has a binding signal (log2 normalized intensity) of 7.7.
In the case of CAGGATCTCAGCCGCGCGGCTTCAGAGGCC, the binding signal (log2 normalized intensity) is reported as -1.25.
CACATTGTTTTGGAGTTAGCTGTCTTTCTG gave a binding signal (log2 normalized intensity) of 1.47.
Sequence AGGTAGTCCCTGCTCCACGCAAACACAAAA has a binding signal (log2 normalized intensity) of -1.02.
TGGCAGGGGCGCGGCCTAATGCCTGGGAAA showed a binding signal (log2 normalized intensity) of -1.1.
GAAGACCTTCAACTGATTAGATAAGGTTCA gave a binding signal (log2 normalized intensity) of 0.886.
TCAGACTGCTTCTCTGCTGGGGCCCTCACG gave a binding signal (log2 normalized intensity) of -1.13.
Work on TAGGTGCTCTTGGCTAAGACAGGGGCTATT yielded a binding signal (log2 normalized intensity) of -0.628.
Sequence TTTCACCTGGGGCCTTGGGCCACCTGAGAC has a binding signal (log2 normalized intensity) of -1.01.
CAGAGTAAACAGGTAAACAGCTGTGCCATG showed a binding signal (log2 normalized intensity) of -1.04.
TTTTCCTTTGTTGGTTTTGCCCGAGGTCTG gave a binding signal (log2 normalized intensity) of 1.86.
AAAGATTGCATGAGATTTTGCTCAACAAAT showed a binding signal (log2 normalized intensity) of -0.952.
Work on GAGAAATCACGGACTATCCCCGTCCGCGGA yielded a binding signal (log2 normalized intensity) of -1.18.
Sequence TTCCTGGGCTCAAACAATCCTCCCACCTCA has a binding signal (log2 normalized intensity) of 1.49.
Work on GACTGGGTGTGGGGGTGGAGAAGGAAGGGG yielded a binding signal (log2 normalized intensity) of -1.01.
CAGTGAAAACAGCCCTAACCAGGGGTGGGG gave a binding signal (log2 normalized intensity) of -1.13.
Work on TTCTCAAACCTTCCAAAGTTCAACCTCATT yielded a binding signal (log2 normalized intensity) of 2.3.
For GAGACTTTGGACTTTGGACTTGGGACTTTC, the binding signal (log2 normalized intensity) was 9.27.
TGGAGCATGACCCTTTGCAGGTGGGAGAGG showed a binding signal (log2 normalized intensity) of 0.139.
For CAGCCAGCAGGGGGCGCAGAAGGGATGGGA, the binding signal (log2 normalized intensity) was -1.13.
In the case of CAACTGTGTGTGGCCTGCACAGTTGCACAA, the binding signal (log2 normalized intensity) is reported as -1.2.
Work on ATGTGAAGCTTGCTGATTACATAGGAGGCT yielded a binding signal (log2 normalized intensity) of -1.19.
Sequence GGTTATGCAGAGCTTAGTTTGCCACGGTCA has a binding signal (log2 normalized intensity) of 1.32.
Sequence TAGAATTTGAACTATGGTCATCTGAGGGAA has a binding signal (log2 normalized intensity) of 1.32.
In the case of AGAGAGAGGGAGAGTGGCCTTTGGAATCAA, the binding signal (log2 normalized intensity) is reported as 3.05.
GATGGAACAGTGTAACACATGGCATAGTTG was tested, and the binding signal (log2 normalized intensity) was 1.11.
GAGGAGTGGCCATGATGCCATCTGGTGAAG was tested, and the binding signal (log2 normalized intensity) was -0.987.
With CCACAATTACTGAAGTTCCAGAGCCTTCAA the binding signal (log2 normalized intensity) was -1.1.
AGATAGCACCAGCCCATTAATCAAGGCTGC gave a binding signal (log2 normalized intensity) of -1.07.
Sequence TACTTAATGATCTTGGCTGCTTTAGACATG has a binding signal (log2 normalized intensity) of 0.616.
With TTACAAAACAGGTTCTTCCACGACTCCCCC the binding signal (log2 normalized intensity) was 3.73.
For CCCCTCCTGTCAGTTTATTTACTGTCCTCA, the binding signal (log2 normalized intensity) was 1.32.
For TAACCTTTGACCATCCACGGGTCCATGATT, the binding signal (log2 normalized intensity) was 4.42.
For CCAGCTGGTTTGCCTCTCTTAGGTGACAGC, the binding signal (log2 normalized intensity) was 0.473.
AGGTGAATGTACAAAGGTCAACGGCACAAG showed a binding signal (log2 normalized intensity) of 4.49.
GTGTATGTGTGTGTACACATTGATATGTTT gave a binding signal (log2 normalized intensity) of 2.01.
Work on AGAGCGATCAAAGGTCACAGAGACCACAGG yielded a binding signal (log2 normalized intensity) of 4.83.
With TGTGTCGATGTTAACGCTAAAGAGGTATCA the binding signal (log2 normalized intensity) was 1.54.
